Among all 310,000 compounds or so, about 2,200 (0.71%) showed an effect of 50% or more. The effect is printed as a negative number. Some of the results follow.
What follows are compounds tested against human ether-à-go-go-related gene (hERG) potassium channel (human, UniProt Q12809) (assay: primary screen, population patch clamp on CHO cells stably expressing hERG).
human ether-à-go-go-related gene (hERG) potassium channel, sequence (Q12809 whole entry, looked up): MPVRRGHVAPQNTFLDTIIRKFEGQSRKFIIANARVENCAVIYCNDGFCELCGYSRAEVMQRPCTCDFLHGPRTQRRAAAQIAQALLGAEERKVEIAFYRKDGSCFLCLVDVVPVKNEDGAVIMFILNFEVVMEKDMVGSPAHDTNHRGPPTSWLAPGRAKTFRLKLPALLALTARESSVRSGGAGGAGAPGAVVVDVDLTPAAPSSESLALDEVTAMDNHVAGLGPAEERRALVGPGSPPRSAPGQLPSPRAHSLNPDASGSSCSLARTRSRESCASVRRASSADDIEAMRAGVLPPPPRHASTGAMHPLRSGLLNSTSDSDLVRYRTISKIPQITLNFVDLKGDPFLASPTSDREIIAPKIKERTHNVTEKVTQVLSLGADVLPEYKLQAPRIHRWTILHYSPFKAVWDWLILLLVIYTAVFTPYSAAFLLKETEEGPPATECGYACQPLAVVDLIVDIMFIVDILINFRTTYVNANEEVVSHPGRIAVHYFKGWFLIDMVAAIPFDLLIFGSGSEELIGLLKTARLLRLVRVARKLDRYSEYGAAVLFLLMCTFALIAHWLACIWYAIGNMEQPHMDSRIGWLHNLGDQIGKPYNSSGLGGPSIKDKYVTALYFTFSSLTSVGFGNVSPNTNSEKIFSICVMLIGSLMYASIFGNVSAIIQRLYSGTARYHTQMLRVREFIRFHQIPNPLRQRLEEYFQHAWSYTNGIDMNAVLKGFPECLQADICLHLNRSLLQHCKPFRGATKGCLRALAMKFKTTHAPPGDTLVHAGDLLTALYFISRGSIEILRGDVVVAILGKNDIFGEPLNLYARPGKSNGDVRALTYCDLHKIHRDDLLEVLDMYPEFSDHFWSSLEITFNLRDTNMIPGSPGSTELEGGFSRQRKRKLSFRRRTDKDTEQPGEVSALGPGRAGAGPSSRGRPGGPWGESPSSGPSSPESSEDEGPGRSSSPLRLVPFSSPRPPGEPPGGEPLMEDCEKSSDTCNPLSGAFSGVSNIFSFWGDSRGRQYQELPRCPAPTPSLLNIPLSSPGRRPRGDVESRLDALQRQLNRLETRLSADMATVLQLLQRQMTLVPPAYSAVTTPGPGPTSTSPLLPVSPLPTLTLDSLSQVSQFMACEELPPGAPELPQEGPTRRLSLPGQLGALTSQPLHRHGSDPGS

SMILES | hERG current change (%, negative = inhibition) at 1uM
O=C(CS(=O)(=O)c1ccccc1)Nc1nc(-c2ccccc2)cs1 | -11.5%
COc1cccc(C(=O)Nc2cccc3ccccc23)c1OC | 12.5%
O=C(Cn1cnc(S(=O)(=O)N2CCCC2)c1)Nc1cccc(Br)c1 | 22.2%
COCCCNc1nc2ccccc2nc1NS(=O)(=O)c1cccs1 | 15.1%
Cc1cc(C(=O)N2CCCC(Nc3ccccc3)C2)c2ccc(F)cc2n1 (centres unmarked) | 13.3%
CCc1c(C)n([O-])c2c([n+]1=O)CCC2 | 12.1%
C/C(=N/NC(=O)c1cnccn1)c1ccncc1 | 6.15%
COc1cc(Cl)c(CN2CCC(CO)(CCOc3ccccc3)CC2)cc1OC | -85.1%
Cc1cc(NS(=O)(=O)c2ccc(-c3ccccc3)cc2)no1 | 8.87%
CN(C)S(=O)(=O)c1ccc(S(=O)(=O)NCc2cccs2)cc1 | 9.01%
Cc1ccc(N2CC(c3nc4ccccc4n3C)CC2=O)cc1C (centres unmarked) | 5.47%
O=C(Nc1ccc2c(c1)CCC2)c1ccc(F)cc1 | 13.8%
Cc1noc(C)c1S(=O)(=O)Nc1ccccc1Oc1ccccc1 | 12.2%
COc1cc(OC)cc(C(=O)OC/C(O)=C(\C#N)c2nc3ccccc3[nH]2)c1 | -0.646%
Cc1c(C=O)c(=O)n(-c2ccccc2)n1-c1ccccc1 | 13%
Cc1ncc(CO)c(/C=N/NC(=S)Nc2cccc(Cl)c2)c1O | 14.8%
CC1=C(C(=O)Nc2cc(C(=O)N3CCN(c4cccc(C)c4)C(C)C3)ccc2C)SCCO1 (centres unmarked) | 11.3%
COC(=O)c1ccccc1Oc1nc(Cl)cc(OC)n1 | 7.09%
Cn1ncc(Cl)c1C(=O)Nc1ccc2c(c1)OCO2 | 18.1%
Cc1ccc(CCNC(=O)Cc2ccc(NC3=NC4CS(=O)(=O)CC4S3)cc2)cc1 (centres unmarked) | 12.3%
Cc1cccc(-c2nnc(SCC(=O)Nc3cccc(C(=O)N4CCOCC4)c3)n2C)c1 | 1.11%
Cc1cccc(C(=O)OCC(=O)Nc2c(C)nn(-c3ccccc3)c2C)c1O | 12.1%
CC(/C=C/C=C/c1ccccc1)=N/NC(=O)C(O)c1ccccc1 (centres unmarked) | 12.5%

SMILES | hERG current change (%, negative = inhibition) at 1uM
COc1ncnc2c1sc1nc(-c3ccccc3)c3c(c12)CCCC3 | 12.3%
CCn1cc(C=C2C(=O)NC(=O)NC2=O)c2ccccc21 | 13.8%
COC(/C=C/Nc1ccc(OC)cc1)=C(C#N)C#N | -20.9%
COc1ccc(-n2cnnc2SCC(=O)Nc2cccc([N+](=O)[O-])c2)cc1 | 8.86%
CCCCOC(=O)CSC1=C(C#N)C(c2ccccc2OC)C(C#N)C(=O)N1 (centres unmarked) | 15.5%
CNc1nc(C)c(C(C)=O)cc1C#N | 13%
c1ccc2oc(SCc3nc4ccccc4s3)nc2c1 | 6.91%
CCOC(=O)c1sc(NC(=O)CN2C(=O)NC3(CCCCCCC3)C2=O)c(C(=O)OCC)c1C | 8.08%
COc1ccc(CNc2nc3ccccc3n2Cc2ccccc2)cc1OC | -10.5%
C/C(=N\NC(=O)CNc1cccc2ccccc12)c1ccc(Br)s1 | 4.48%
CC(C)Cc1nnc(NC(=O)c2ccc3c(=O)n4c(nc3c2)CCC4)s1 | 4.36%
Cc1ccccc1NC(=O)CSc1nc(Nc2ccccc2)nc(N2CCOCC2)n1 | 2.77%
CCOC(=O)Cc1csc(NC(=O)Nc2ccc(C)cc2)n1 | 5.98%
CCOc1ccc(CCNC(=O)c2ccc(Cl)c(S(=O)(=O)N3CCOCC3)c2)cc1OCC | -2.82%
Cc1cc(OCCCC(=O)NCCN2C(=O)S/C(=C\c3cccnc3)C2=O)ccc1Cl | 3.8%
CCOc1ccc2nc(N3CCCN(C(=O)Nc4ccccc4C)CC3)c(C#N)cc2c1 | 10.5%
O=c1c2ccccc2nc(COc2ccccc2)n1/N=C/c1ccco1 | 5.89%
c1ccc(CSc2nnc3ccc(-c4ccco4)nn23)nc1 | 11.2%
CCN(Cc1ccccc1)Cc1ccc(OCc2ccccc2)c(OC)c1 | 5.68%
C(=C\c1nc(-c2cccnc2)no1)/c1ccccc1 | 10.5%
C1COCCO1.CCOc1ccccc1N/C(=N/c1nc(C)cc(C)n1)NC(=O)Nc1ccc(Cl)c(Cl)c1 | 8.2%
CCOc1ccccc1CN1CCN(S(C)(=O)=O)CC1.O=C(O)C(=O)O | 1.14%
O=C(O)C1CCC(=O)N1Cc1ccccc1Cl (centres unmarked) | 2.96%

SMILES | hERG current change (%, negative = inhibition) at 1uM
COc1ccc(-c2nc(NC(=O)c3cc(C(C)(C)C)nn3C)sc2C)cc1 | 4.9%
O=C(NCC1COc2ccccc2O1)C1(c2ccccc2)CCCC1 (centres unmarked) | 8.38%
O=C(NC1CCCCCC1)C1c2ccccc2C(=O)N1CCCN1CCOCC1 (centres unmarked) | 9.18%
CCOC(=O)CSc1nc(Cc2ccccc2)nc2ccccc12 | 3.08%
COc1ccc(-c2csc(C3=C(O)CN(C(C)C)C3=N)n2)cc1OC | 5%
COc1ccc(N2CCN(C(=O)c3ccc(CSc4ccccc4)cc3)CC2)cc1 | 17.1%
CC[C@H](C)[C@H](NC(=O)OCc1ccccc1)C(=O)OCC(=O)Nc1ccc(N2CCOCC2)cc1 | -1.03%
CN(C)CCCNC(=O)/C(=C\c1ccc(-c2ccc(Br)cc2)o1)NC(=O)c1ccccc1 | -82%
Cc1cc(=O)[nH]c(-c2ccc(Cl)cc2)n1 | 10.6%
CCOC(=O)c1oc2nc(C)c3c(c2c1N)CC(C)(C)OC3 | 13.5%
CC(=O)CC(C)(C)Nc1nc2ccc([N+](=O)[O-])cc2o1 | 6.25%
CCOC(=O)N1CCN(C(=O)CSc2ccc3nnc(-c4ccccn4)n3n2)CC1 | 2.22%
Cc1ccc(S(=O)(=O)NNC2CC(=O)N(c3ccc(Br)cc3)C2=O)cc1 (centres unmarked) | 21.2%
CC(=O)N/C(=C\c1ccccc1)C(=O)OCc1cccc(S(=O)(=O)N(C)C)c1 | 3.54%
CCN1CCN(c2ccc(S(=O)(=O)N3CCOCC3)cc2NC(=O)c2ccc(Cl)s2)CC1 | -2.61%
CCOc1ccccc1NC(=O)c1cccc2c1C(=O)N(C1CCCCC1)C2 | 10.2%
CN(C)c1nc(SCc2ccccc2)nc(N2CCOCC2)n1 | 16.9%
O=C(Nc1ccc(-n2cccn2)cc1)C1CCCCN1Cc1cccc2c1OCO2 (centres unmarked) | 3.95%
CCC(C)[C@H](NC(=O)NCCCn1ccnc1)C(=O)OC (some centres unmarked) | 3.54%
CCCS(=O)(=O)N1CCN(Cc2ccc(OCc3ccccc3)c(OC)c2)CC1.O=C(O)C(=O)O | -1.2%
CCN1C(c2ccc(F)cc2)=CS/C1=C(\C#N)c1nnc2n1-c1ccccc1SC2 | -1.69%
O=C(COC(=O)CNC(=O)C1CCCCC1)Nc1ccc(Cl)cn1 | 2.1%
O=C1NCCN1C(=O)N(c1ccccc1)c1ccccc1 | 3.25%

SMILES | hERG current change (%, negative = inhibition) at 1uM
COc1ccc(C)cc1N(CC(=O)N/N=C/c1ccc2c(c1)OCO2)S(C)(=O)=O | 12.8%
O=C(CCC(=O)c1ccc(F)cc1)NC1CCCN(Cc2ccccc2F)C1 (centres unmarked) | 4.75%
CC(=O)Oc1ccc(N(C(C)=O)S(=O)(=O)c2ccc3ccccc3c2)cc1 | 15.3%
CCOC(=O)CCCCC(=O)c1[nH]c(=O)[nH]c1C[n+]1ccc(C)cc1.[Cl-] | 9.46%
CCc1nnc(NC(=O)Nc2ccc(Cl)cc2)s1 | 13.9%
Cc1ccc(Cn2ccsc2=NC(=O)COC(=O)C(C)C)cc1 | 13.3%
CSC(=S)N/N=C/c1ccc(Br)cc1 | 7.51%
CC(C)(C)c1csc(NC(=O)c2ccc(Cl)s2)n1 | 9.99%
COc1ccc(NS(=O)(=O)c2cc(NC(=O)c3sccc3C)ccc2N2CCOCC2)cc1 | 16.5%
CCCCOc1ccc(C(=O)N/C(=C/C=C/c2ccccc2)C(=O)NCCCO)cc1 | -1.67%
O=Cc1ccc(OCc2ccccn2)cc1 | 11.8%
Cc1ccccc1-n1c(O)c(/C=N/NC(=O)c2ccncc2)c(=O)[nH]c1=O | 11.9%
COc1ccc(OC)c(C2C(C(=O)O)c3ccccc3C(=O)N2C)c1 (centres unmarked) | 9.4%
O=C(O)C1C2C=CC(C3CC23)C1C(=O)O (centres unmarked) | 15.9%
Cc1cc(N=Nc2ccccc2C(=O)O)c(C)c(C)c1O | 22%
CN(C)S(=O)(=O)c1ccc(NC=C(C#N)C#N)cc1 | 7.01%
Cc1ccc2c(c1)N(C(=O)CCC(=O)N1CCN(c3ccccc3)CC1)CCO2 | -6.69%
O=C(c1cccc(C(F)(F)F)c1)c1c[nH]c(C(=O)NCC2CCCO2)c1 (centres unmarked) | 4.81%
O=C(Nc1ccc2nn(-c3ccccc3)nc2c1)c1cccs1 | 12.3%
CCOc1ccccc1/C=N\Nc1cnn(Cc2ccccc2)c(=O)c1Cl | 9.95%

— PMC4336329 (PLoS ONE, 2015)
